Hit rate of the full screen: of about 360,000 compounds, about 16,000 (4.4%) were called active. Inconclusive means that the source gave no clear call. Such entries were picked first, then a sample of the others. The call rests on the fitted dose curve; in most records, active means well fitted inhibition curve with a large enough effect; inconclusive means small, poorly fitted or top-dose-only effect; inactive means no such curve, though single readings can be large or run the other way. Potencies of inconclusive entries are doubtful fits and often do not repeat.
Target: Bromodomain adjacent to zinc finger domain protein 2B (Homo sapiens) (UniProt Q9UIF8)
Sequence of UniProt Q9UIF8 (Q9UIF8 whole entry, looked up, the tested form may be a part): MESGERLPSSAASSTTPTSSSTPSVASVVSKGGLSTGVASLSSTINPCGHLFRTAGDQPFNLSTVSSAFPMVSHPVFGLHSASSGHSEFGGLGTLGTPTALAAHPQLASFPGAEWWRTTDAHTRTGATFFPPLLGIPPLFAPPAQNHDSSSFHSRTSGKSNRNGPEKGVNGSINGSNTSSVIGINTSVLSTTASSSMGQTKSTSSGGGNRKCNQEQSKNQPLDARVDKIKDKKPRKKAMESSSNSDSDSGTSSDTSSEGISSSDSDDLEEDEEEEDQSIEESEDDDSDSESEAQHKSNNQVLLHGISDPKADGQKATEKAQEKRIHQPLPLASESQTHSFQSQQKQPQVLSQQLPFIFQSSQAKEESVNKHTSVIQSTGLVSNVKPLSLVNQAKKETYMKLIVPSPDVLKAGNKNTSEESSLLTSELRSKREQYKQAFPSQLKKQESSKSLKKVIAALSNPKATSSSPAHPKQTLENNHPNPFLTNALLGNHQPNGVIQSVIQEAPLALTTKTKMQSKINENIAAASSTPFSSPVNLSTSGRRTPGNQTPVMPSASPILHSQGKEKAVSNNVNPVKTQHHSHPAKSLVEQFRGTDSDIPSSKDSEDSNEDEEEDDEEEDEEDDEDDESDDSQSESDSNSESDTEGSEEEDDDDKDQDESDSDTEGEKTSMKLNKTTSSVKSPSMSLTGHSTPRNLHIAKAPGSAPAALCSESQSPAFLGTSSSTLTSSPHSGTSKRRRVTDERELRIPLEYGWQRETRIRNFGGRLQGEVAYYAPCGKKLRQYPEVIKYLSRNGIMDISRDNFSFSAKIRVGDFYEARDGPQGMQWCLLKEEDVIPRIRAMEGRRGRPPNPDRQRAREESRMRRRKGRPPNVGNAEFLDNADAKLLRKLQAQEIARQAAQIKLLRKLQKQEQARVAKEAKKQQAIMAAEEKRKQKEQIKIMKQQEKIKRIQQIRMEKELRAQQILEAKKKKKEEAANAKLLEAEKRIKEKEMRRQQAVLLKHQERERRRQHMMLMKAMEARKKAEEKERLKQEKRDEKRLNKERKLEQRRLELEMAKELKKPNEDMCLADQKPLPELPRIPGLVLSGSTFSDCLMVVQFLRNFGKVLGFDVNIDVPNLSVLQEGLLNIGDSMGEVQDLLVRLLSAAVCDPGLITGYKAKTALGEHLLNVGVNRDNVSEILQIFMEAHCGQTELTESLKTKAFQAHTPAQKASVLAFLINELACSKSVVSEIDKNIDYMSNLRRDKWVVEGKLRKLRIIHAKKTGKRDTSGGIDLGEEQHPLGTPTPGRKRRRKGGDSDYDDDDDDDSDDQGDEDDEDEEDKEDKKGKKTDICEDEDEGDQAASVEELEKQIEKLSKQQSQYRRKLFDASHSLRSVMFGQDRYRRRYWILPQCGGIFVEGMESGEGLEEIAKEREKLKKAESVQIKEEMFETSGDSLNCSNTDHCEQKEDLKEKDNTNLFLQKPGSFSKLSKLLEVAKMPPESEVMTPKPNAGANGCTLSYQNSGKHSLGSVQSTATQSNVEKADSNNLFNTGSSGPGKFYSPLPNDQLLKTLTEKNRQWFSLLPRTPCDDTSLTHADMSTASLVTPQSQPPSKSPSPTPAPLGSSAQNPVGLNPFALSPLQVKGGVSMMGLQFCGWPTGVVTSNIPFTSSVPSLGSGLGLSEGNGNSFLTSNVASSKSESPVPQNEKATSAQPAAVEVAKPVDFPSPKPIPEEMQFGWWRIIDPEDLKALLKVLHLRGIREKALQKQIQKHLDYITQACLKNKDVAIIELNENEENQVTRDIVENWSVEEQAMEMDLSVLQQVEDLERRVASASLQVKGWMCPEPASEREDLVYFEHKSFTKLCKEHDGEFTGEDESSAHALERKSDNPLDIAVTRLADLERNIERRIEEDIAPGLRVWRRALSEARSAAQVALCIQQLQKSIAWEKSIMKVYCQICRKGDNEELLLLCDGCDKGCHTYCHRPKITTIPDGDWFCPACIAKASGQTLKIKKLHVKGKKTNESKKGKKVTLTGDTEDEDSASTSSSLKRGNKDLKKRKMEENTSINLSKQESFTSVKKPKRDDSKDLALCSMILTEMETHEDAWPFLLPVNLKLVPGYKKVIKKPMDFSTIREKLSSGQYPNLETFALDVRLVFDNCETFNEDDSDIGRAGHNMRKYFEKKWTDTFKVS
Experiment: qHTS Assay for Inhibitors of BAZ2B; further: nearly all actives have a fitted effect of over 60% in size
Conditions: AlphaScreen BAZ2B-H3K14Ac peptide displacement; activity change, negative = inhibition: at 114 µM (top of the series) unless noted
In short: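 Inhibition is scored as reduced AlphaScreen emission. The BAZ2B/b-H3(5-23)K14Ac complex (50 nM each) in PBS pH 7.4, 0.01% Tween-20 meets compound (up to 110 uM) for 30 min at RT before bead addition.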
On the % scale 0 is the no-effect control and ±100 the full control effect; potency means the concentration at half of the fitted maximal effect; tags describe the fitted curve by direction and shape.

| SMILES | Potency | activity change, negative = inhibition |
| --- | --- | --- |
| COc1ccccc1N1CCN(/N=C/c2ccc([N+](=O)[O-])cc2)CC1 | active: 17.8 µM |  |
| Cc1nn(-c2ccccc2)c(Cl)c1/C=N/Nc1ccc(S(=O)(=O)Nc2ccccc2C(=O)O)cc1[N+](=O)[O-] | active: 14.1 µM |  |
| COCC(C)Nc1ncnc2c1cnn2-c1cccc(Cl)c1 (centres undefined) |  | inactive: 2.51% |
| Cc1ccc(Cl)cc1N1CCN(C(=O)c2cc(S(=O)(=O)N3CCCCC3)cn2C)CC1 | inconclusive: 10 µM [inhibitor, full curve] |  |
| CCOC(=O)Cc1nnc(NC(=O)C(CC)Sc2nnc3c4ccccc4n(C)c3n2)s1 (centres undefined) |  | inactive: 3.04% |
| COc1cc(/C=N/NC(=O)C2=NNC(=O)C2C)ccc1O (centres undefined) | inconclusive: 89.1 µM [inhibitor, single point] |  |
| Cc1[nH]c2ccccc2c1C(=O)CN1CCCC1 | inconclusive: 56.2 µM [inhibitor, partial curve, poor fit] |  |
| O=c1oc2cc(Oc3ccc(C(F)(F)F)cc3[N+](=O)[O-])ccc2c2c1CCCC2 | inconclusive: 89.1 µM [inhibitor, single point] |  |
| COc1ccc(NC(=O)c2ccc3oc(=O)c(S(=O)(=O)c4ccc(F)cc4)cc3c2)c(OC)c1 |  | inactive: -14.1% |
| NNC(=O)c1nnn(-c2nonc2N)c1CN1CCc2ccccc2C1 | inconclusive: 25.1 µM [inhibitor, full curve, poor fit] |  |
| Cc1c(O)cc2c(c1O)C(=O)CC(c1ccc(O)cc1)O2 (centres undefined) | active: 56.2 µM |  |
| COc1ccc(-c2cn[nH]c2N)c(OC)c1 |  | inactive: -9.88% |
| CCOC(=O)c1c(C)[nH]c(C)c1S(=O)(=O)N1CCC(C(=O)Nc2ccc(OC)c(OC)c2)CC1 |  | inactive: -1.02% |
| Cn1c(N=Nc2ccc(N3CCOCC3)cc2)[n+](C)c2ccccc21 | active: 12.6 µM |  |
| CCc1ccc(N2C(=O)c3cc(N4CCOCC4)c([N+](=O)[O-])cc3C2=O)cc1 |  | inactive: 5.87% |
| S=c1sc2c(N3CCN(Cc4ccccc4)CC3)ncnc2n1-c1ccccc1 |  | inactive: -6.74% |
| COC(=O)CCC(=O)Nc1ccc(N=Nc2ccccc2)cc1 | active: 39.8 µM |  |
| CCOC(=O)c1cc(CC)sc1NC(=O)COc1ccccc1C |  | inactive: 0.889% |
| C=CCOc1cc(OC)c(OC)c(OC)c1 |  | inactive: -8.17% |
| Cc1ccc(OCc2nn3c(-c4n[nH]c5c4CCC5)nnc3s2)cc1 | inconclusive: 56.2 µM [inhibitor, partial curve] |  |
| CS(=O)(=O)c1ccc(Cl)c(NC(=O)Cc2ccccc2F)c1 |  | inactive: -2.87% |
| CCOc1ccc(N=C2NC(=O)SC2CC(=O)OC)cc1 (centres undefined) | inconclusive: 3.16 µM [inhibitor, single point] |  |
| CCn1c(=O)n(CC2CCC(C(=O)NC(C)C)CC2)c(=O)c2sccc21 (centres undefined) |  | inactive: -10.5% |
| Cc1cccc(NC(=S)NC(=O)c2ccc(Br)o2)c1C | inconclusive: 79.4 µM [inhibitor, single point] |  |
| COc1cc(/C=C2/C(=O)ON=C2c2ccccc2)ccc1O | active: 50.1 µM |  |

| SMILES | Potency | activity change, negative = inhibition |
| --- | --- | --- |
| COc1ccc(N2CCN(Cc3nc4sc(C)c(C)c4c(=O)[nH]3)CC2)cc1 | inconclusive: 79.4 µM [inhibitor, single point] |  |
| Cc1cc(-c2c(C)[nH]n(-c3ccc(Cl)cc3)c2=O)n(-c2ccc(Cl)cc2)n1 | inconclusive: 89.1 µM [inhibitor, single point] |  |
| Cc1ccc2c(CC(=O)OCC(=O)N(CC(C)C)c3c(N)n(Cc4ccccc4)c(=O)[nH]c3=O)coc2c1 | inconclusive: 79.4 µM [inhibitor, single point] |  |
| CCOC(=O)N1CCN(C(=O)c2ccc3c(c2)N(Cc2ccccc2)CCS3)CC1 | inconclusive: 89.1 µM [inhibitor, single point] |  |
| COc1cccc(C(=O)NC(=S)Nc2ccccc2N2CCCCC2)c1 | inconclusive: 31.6 µM [inhibitor, partial curve] |  |
| Cc1ccc(CN(C)C(=O)c2ccc3c(c2)NC(=O)CS3)o1 |  | inactive: -23.1% |
| CCOc1c(OC(C)=O)ccc(/C=C/c2ccc3cccc(OC(C)=O)c3n2)c1[N+](=O)[O-] | inconclusive: 79.4 µM [inhibitor, single point] |  |
| O=C(Nc1ccc(Cl)c([N+](=O)[O-])c1)c1cnccn1 | active: 50.1 µM |  |
| COC(=O)c1sc(NC(=O)C(C)C)c(C(=O)OC)c1C | inconclusive: 89.1 µM [inhibitor, single point] |  |
| Clc1ccccc1CN1CCN(/N=C/C=C/c2ccco2)CC1 | active: 31.6 µM |  |
| CCn1cc(C(=O)O)c(=O)c2cc(Br)ccc21 | inconclusive: 89.1 µM [inhibitor, single point] |  |
| Cc1ccc(C2C(C#N)=C(N)Oc3n[nH]c(-c4ccccc4)c32)o1 (centres undefined) | inconclusive: 56.2 µM [inhibitor, single point] |  |
| CCc1nnc(NC(=O)CSc2nnc(-c3ccccc3O)n2-c2ccc(C)cc2)s1 | inconclusive: 100 µM [inhibitor, single point] |  |
| O=C(O)CN1c2cccc3cccc(c23)S1(=O)=O | inconclusive: 79.4 µM [inhibitor, partial curve] |  |
| COc1ccc(/C=C2\Sc3ccc(C(=O)NCCN4CCCCCC4)cc3N(C)C2=O)cc1 | inconclusive: 8.91 µM [inhibitor, full curve] |  |
| Cc1cc(C)c(-n2[nH]nnc2=S)c(C)c1 | inconclusive: 89.1 µM [inhibitor, single point] |  |
| Cc1[nH]n(-c2ccccc2)c(=O)c1N=Nc1ccc2c(c1)OCO2 | active: 1.78 µM |  |
| CCN(CC)C(=O)c1[nH]cnc1C(=O)N[C@@H](CC(C)C)C(=O)OCc1ccccc1 | inconclusive: 56.2 µM [inhibitor, partial curve] |  |
| O=[N+]([O-])c1ccc(NC(=S)NCc2ccc(F)cc2)cc1 | inconclusive: 70.8 µM [inhibitor, partial curve] |  |
| O=[N+]([O-])c1cccnc1SCc1c(F)cccc1Cl | inconclusive: 17.8 µM [inhibitor, full curve] |  |
| Cc1ccc(CC(=O)Nc2ccc(F)c([N+](=O)[O-])c2)cc1C | inconclusive: 89.1 µM [inhibitor, single point] |  |
| COc1cc(NC(=O)c2ccc(Cl)cc2)c(OC)cc1NC(=O)CN1CCCCC1 | active: 39.8 µM |  |
| CCOC(=O)c1cnc(SCC(=O)Nc2cc(OC)ccc2OC)nc1N | inconclusive: 89.1 µM [inhibitor, single point] |  |
| O=C(CSc1nncs1)Nc1cc(S(=O)(=O)N2CCOCC2)ccc1N1CCCC1 |  | inactive: -6.32% |
| COc1cccc(NC(=O)[C@H](CC(C)C)NC(=O)[C@@H]2Cc3ccccc3CN2)c1 | inconclusive: 89.1 µM [inhibitor, single point] |  |

| SMILES | Potency | activity change, negative = inhibition |
| --- | --- | --- |
| Cc1ccc(C(=O)C(C)Oc2ccc3ccc(=O)oc3c2)cc1 (centres undefined) | inconclusive: 89.1 µM [inhibitor, single point] |  |
| Cc1ccc(C)c(NC(=O)Nc2csc3c2CCCC3)c1 |  | inactive: -1.45% |
| Cc1cc(C)c(NC(=O)CCCn2c(=O)oc3ccccc32)c(C)c1 |  | inactive: -1.35% |
| Cn1nnnc1SCCNCc1ccccc1F | inconclusive: 89.1 µM [inhibitor, single point] |  |
| CN=c1scc(-c2ccc(OC)cc2)n1/N=C(\C)c1cccnc1 | active: 31.6 µM |  |
| C=C1SC(Nc2c(C)cccc2C)=NC12CCCCC2 | inconclusive: 5.62 µM [inhibitor, partial curve, poor fit] |  |
| CN(CC(=O)Nc1ncn[nH]1)S(=O)(=O)c1ccc(Cl)cc1 | active: 50.1 µM |  |
| Cc1ccc(C(=O)CSc2nnc(CNc3nc(-c4ccccc4)cs3)n2C)cc1 | inconclusive: 89.1 µM [inhibitor, single point] |  |
| O=C(CSc1nc2ccccc2[nH]1)NC1CCCC1 | active: 79.4 µM |  |
| CN(C)c1ccc(CNC(=O)c2cccn2-c2nnc(N3CCCCC3)s2)cc1 | active: 39.8 µM |  |
| Cc1noc(NS(=O)(=O)c2ccc(N/C=C\C(=O)c3cccs3)cc2)c1C | inconclusive: 50.1 µM [inhibitor, partial curve] |  |
| COc1ccc(-c2csc(N3CCOCC3)n2)cc1OC | inconclusive: 89.1 µM [inhibitor, single point] |  |
| CCCCOc1ccc(C(=O)NCCc2csc(-c3ccc(OC)cc3)n2)cc1 |  | inactive: 4.57% |
| CN(C)/C=C/C(=O)c1ccc(-n2cccc2)cc1 | inconclusive: 50.1 µM [inhibitor, partial curve] |  |
| Cc1cc(OCCOc2cccc3cccnc23)cc(C)c1Cl |  | inactive: 9.09% |
| Cc1cc(C)nc(N/N=C/C2=C(N3CCOCC3)C(=C/c3ccccc3)/CC2)n1 | inconclusive: 50.1 µM [inhibitor, partial curve] |  |
| CN(C)c1ccc(C(CNS(=O)(=O)c2ccc3ccccc3c2)c2c[nH]c3ccccc23)cc1 (centres undefined) | active: 12.6 µM |  |
| CCC1=NN(C(=O)c2ccc(Br)cc2)C(O)(c2ccccc2)C1 (centres undefined) | active: 50.1 µM |  |
| O=C(Nc1nc2ccccc2n1CCN1CCCCC1)c1ccco1 | inconclusive: 89.1 µM [inhibitor, single point] |  |
| CN1CCN(C2=Cc3ccc(Cl)cc3Sc3ccc(F)cc32)CC1 | active: 50.1 µM |  |
| CCCCC(=O)N/N=C/c1ccc(N2CCOCC2)c([N+](=O)[O-])c1 |  | inactive: -33.4% |
| Cc1ccc(C)c(N2CCN(C(=O)C3CCN(S(=O)(=O)c4cccc5nsnc45)CC3)CC2)c1 | inconclusive: 44.7 µM [inhibitor, partial curve] |  |
| COc1cccc(-c2nc(N3CC(C)CC(C)C3)c3ccccc3n2)c1O (centres undefined) | inconclusive: 8.91 µM [inhibitor, partial curve] |  |
| Cc1ccc(C(=O)N2CCN(c3ncccn3)CC2)c(C)c1 |  | inactive: -1.11% |
